# Source: PubChem BioAssay AID602332 (National Center for Advancing Translational Sciences (NCATS), 2012)
# In all, about 420,000 compounds went through this assay and about 75 (0.02%) were called active. Inconclusive results, whose numbers are uncertain, are shown with a selection of clear calls. Calls follow the shape of the dose curve; as a rule, active = well fitted activation curve with a large enough effect; inconclusive = small, poorly fitted or top-dose-only effect; inactive = no such curve, though single readings can be large or run the other way. A potency beside an inconclusive call is a rough fit, not a confirmed value.
# Experiment: qHTS for Inducers of the Endoplasmic Reticulum Stress Response (ERSR) in Human Glioma: qHTS; also: nearly all actives have a fitted effect of over 35% in size; as to activation: % of control where 0% means no effect
# Details: U87-MG GRP78 promoter luciferase reporter, 16 h; activation: hits give high values
# Description: Primary protein unfolding takes place for many diseases, including diabetes and hypoxia, , and triggers a reaction in the cells called ER stress response (ERSR). ). ERSR is designed as a repair mechanism, but ultimately leads to cell death via apoptosis if conditions triggering protein unfolding persist (1). The molecular clue to ERSR activation is the enhancement of the expression of key molecular chaperones, including the glucose regulated protein (GRP) 78. GRP78 is the main sensor for protein folding and the main actuator of the ERSR.
# In a collaboration between the Southern Research Institute and the NIH Chemical Genomics Center, a cell based screen was developed that reliably uses GRP78 as a sensor to identify small molecules as inducers of ERSR. In resting conditions, GRP78 binds proteins and acts as a natural repressor. Once unfolded proteins are present in the ER, GRP78 releases some of the repressors and binds to the unfolded proteins. The release of the repressors executes the ERSR program. Using a human glioma cell line in a miniaturized, luminescent format, a high-throughput screen was developed to identify actuators of the ERSR.
# (1) Soboloff, J. and S. A. Berger (2002). "Sustained ER Ca2+ depletion suppresses protein synthesis and induces activation-enhanced cell death in mast cells." J Biol Chem 277(16): 13812-20.
# NIH Chemical Genomics Center [NCGC]
# NIH Molecular Libraries Probe Centers Network [MLPCN]
# Assay Submitter (PI): Maurizio Grimaldi, Southern Research Institute
# Stable transfected human glioma cell line, U87-MG, are dispensed at density 1000 cells/well into Greiner white solid bottom 1536-well assay plates. Compounds are transferred via Kalypsys pin tool equipped with 1536-pin array (10nl slotted pins, V&P Scientific, San Diego, CA). The assay plates will be incubated for 16 hours and developed by adding appropriate quantities of the Promega Bright Glo reagent. The plates will be incubated at room temperature for 10 minutes prior to being transferred into a ViewLux high-throughput CCD imager (PerkinElmer), wherein end-point measurements of luminescence are acquired.
# Potency is read from the fitted curve at half-maximal effect; tags tell the direction and shape of the fitted curve.
SMILES,Potency,activation
COc1cc(-c2nnc(SCC(=O)OC3CCCCC3)o2)cc(OC)c1OC,"inconclusive: 12.6 µM [activator, single point]",–
C[C@H](CO)N1C[C@H](C)[C@@H](CN(C)Cc2ccccc2)Oc2ccc(NC(=O)CCCCCC(=O)Nc3ccccc3N)cc2C1=O,"inconclusive: 35.5 µM [activator, partial curve, poor fit]",–
Cc1ccc(/C=N/Nc2nc3ccccc3[nH]2)s1,"inconclusive: 44.7 µM [activator, partial curve, poor fit]",–
Cc1nn(-c2ccccc2)c(N)c1N=Nc1ccc2ccccc2c1,"inconclusive: 10 µM [activator, single point]",–
CC1(c2ccc([N+](=O)[O-])cc2)Nc2ccccc2S1 (stereo not drawn),"inconclusive: 11.2 µM [activator, single point]",–
Cc1ccc(NC(=O)C(C)OC(=O)c2ccc(NC(=O)CC#N)cc2)cc1S(=O)(=O)N1CCOCC1 (stereo not drawn),–,inactive: -3.64%
COc1ccc(Nc2nnc(-c3ccc(C)c(S(=O)(=O)N4CCN(C)CC4)c3)c3ccccc23)cc1,"inconclusive: 10 µM [activator, full curve, poor fit]",–
CC(C)C[C@H]1CN=C(Nc2ccccc2)N1CCC1CCCCC1,–,inactive: 1.48%
CSc1ccc(S(=O)(=O)NCc2ccc(C)cc2)cc1,–,inactive: -3.43%
CC(CCc1ccccc1)NC(=O)COC(=O)c1cc(NS(=O)(=O)c2ccc(Cl)c([N+](=O)[O-])c2)ccc1O (stereo not drawn),"inconclusive: 20 µM [activator, single point]",–
O=C(N/N=C/c1cccc(OC2CSC2)c1)c1ccccc1O,"inconclusive: 15.8 µM [activator, single point]",–
CC(C)(C)c1ccc(OCCC(=O)NC2=NCCS2)cc1,"inconclusive: 39.8 µM [activator, partial curve, poor fit]",–
CS(=O)(=O)N1CCN(c2ccc(NC(=S)NC(=O)c3cccs3)cc2)CC1,–,inactive: 0.0718%
Cc1cc(Oc2nc3ccccn3c(=O)c2/C=C(\C#N)C(=O)NC2CCS(=O)(=O)C2)ccc1Cl (stereo not drawn),"inconclusive: 50.1 µM [activator, single point]",–
Cc1ccc(C)c(C(=O)CCC(=O)NNC(=O)c2cccs2)c1,–,inactive: -2.52%
CCn1cc(CN2CCC(C(=O)Nc3cccc(-c4cccc(F)c4)c3)CC2)cn1,–,inactive: -1.93%
CC(NC(=O)COC(=O)c1cc(NS(=O)(=O)c2ccc(Cl)c([N+](=O)[O-])c2)ccc1O)C1CC2CCC1C2 (stereo not drawn),"inconclusive: 12.6 µM [activator, single point]",–
CC(O)(c1ccc(F)c(F)c1)c1nc(-c2ccoc2)cs1 (stereo not drawn),"inconclusive: 50.1 µM [activator, single point]",–
O=C(CSc1nc2c(oc3ccccc32)c(=O)[nH]1)Nc1cccc(Cl)c1,"inconclusive: 35.5 µM [activator, partial curve, poor fit]",–
Cc1ccc(C(=O)Oc2ccc3c(c2)ncn3C)cc1,"inconclusive: 11.2 µM [activator, partial curve, poor fit]",–
Cc1nc(SCC(=O)Nc2ccc(F)cc2)c(C#N)c(C)c1CC(=O)c1ccc(Br)cc1,–,inactive: -1.07%

SMILES,Potency,activation
COc1cccc(NC(=O)c2ccc(CNS(=O)(=O)c3ccc4c(c3)C(C)(C)C(=O)N4C)cc2)c1,–,inactive: -5.88%
COc1ccc(NC(=O)/C(Cl)=C(/Cl)S(=O)Cc2ccc(Cl)cc2)cn1 (stereo not drawn),–,inactive: -15.6%
FC(F)(F)c1ccccc1-c1cncnc1NCCN1CCOCC1,"inconclusive: 50.1 µM [activator, partial curve, poor fit]",–
COC(=O)c1sc2cccc(F)c2c1S(=O)(=O)NC(C)c1ccccc1 (stereo not drawn),–,inactive: -3.3%
Cc1cnc(NC(=O)c2cc(S(=O)(=O)N(C)C)ccc2N2CCCC2)s1,"inconclusive: 5.62 µM [activator, full curve, poor fit]",–
CCOc1ccc(NC(=O)CN2C(=O)NC(C)(c3ccc(OC(F)F)cc3)C2=O)cc1 (stereo not drawn),"inconclusive: 44.7 µM [activator, partial curve, poor fit]",–
CC(c1ccccc1C(O)(c1ccccc1)c1ccccc1)N(C)C (stereo not drawn),"inconclusive: 50.1 µM [activator, single point]",–
N#Cc1ccccc1Sc1ccccc1C(=O)OCC(=O)NC12CC3CC(CC(C3)C1)C2,–,inactive: -1.03%
Cc1ccc(NC(=O)CN(C)C(=O)c2ccc3[nH]c4c(c3c2)CC(C)CC4)cc1 (stereo not drawn),–,inactive: -0.422%
Oc1ccc(-c2csc(Nc3ccc4c(c3)OCO4)n2)c(O)c1,"inconclusive: 50.1 µM [activator, partial curve, poor fit]",–
O=C(O)c1ccc(NC(=O)c2cn(-c3ccccc3)nc2-c2ccc(F)cc2)cc1,"inconclusive: 50.1 µM [activator, partial curve, poor fit]",–
Cc1c(Cc2ccc3c(c2)OCO3)sc(NC(=O)C2CC2)c1C(N)=O,"inconclusive: 50.1 µM [activator, partial curve, poor fit]",–
CCc1ccc(S(=O)(=O)Nc2ccc(-c3ccc(N4CCCCCC4)nn3)cc2)cc1,"inconclusive: 50.1 µM [activator, single point]",–
O=C(C1CCC(=O)N(C2CCCCCC2)C1)N1CCN(c2ccccc2Cl)CC1 (stereo not drawn),–,inactive: -5.31%
CNc1ccc(Br)cc(C(=O)/C=C/c2cc(OC)ccc2OC)c1=O,"inconclusive: 15.8 µM [activator, partial curve, poor fit]",–
CC(=O)C1=C(c2ccc(Cl)c(Cl)c2)N(C(C)=O)n2c(C)nnc2S1,"inconclusive: 28.2 µM [activator, single point]",–
COc1ccc(C2CC(c3ccc4ccccc4c3)=NN2C(=O)COC(=O)C2CCC(=O)N2)cc1 (stereo not drawn),–,inactive: 3.13%
O=C(NCC1CCCO1)c1ccc2c(=O)n(-c3ccc(F)cc3)c(=S)[nH]c2c1 (stereo not drawn),–,inactive: -3.34%
CCOC(=O)Nc1ccc2c(c1)N(C(=O)CCN(CC)CC)c1ccccc1CC2,"inconclusive: 35.5 µM [activator, partial curve, poor fit]",–
Cc1cc(N/N=C/c2cccc(Br)c2)nc2ccccc12,–,inactive: 4.85%
CCOc1cccc(C2C=C(c3ccc4c(c3)OCO4)NC(c3cccc(Br)c3)N2)c1O (stereo not drawn),"inconclusive: 50.1 µM [activator, partial curve, poor fit]",–

SMILES,Potency,activation
Cc1cc(C)c(NC(=O)C2CC(=O)N(c3ccc4c(c3)OCCO4)C2)c(C)c1 (stereo not drawn),–,inactive: -1.56%
O=C(Oc1ccc(Br)cc1C(=O)/C=C/c1ccccc1F)c1ccco1,–,inactive: -11.9%
COC(=O)c1ccc2c(=O)[nH]c(CCl)nc2c1,"inconclusive: 50.1 µM [activator, single point]",–
CC1(OC(=O)CCc2ccccc2)C(=O)C=C2C=C(c3ccc(C#N)cc3)N(Cc3ccco3)C=C2C1=O (stereo not drawn),"inconclusive: 11.2 µM [activator, single point]",–
CCOC(=O)CCn1cnc2onc(-c3cc(OC)ccc3Cl)c2c1=O,"inconclusive: 28.2 µM [activator, single point]",–
CCOC(=O)CSc1nnc(-c2ccc(S(=O)(=O)NCc3cccs3)cc2)o1,"inconclusive: 28.2 µM [activator, single point]",–
COc1ccc(S(=O)(=O)N2CN(Cc3ccco3)c3nc4ccccc4nc32)cc1,"inconclusive: 2.82 µM [activator, single point]",–
Oc1ccc(/C=N/n2c3ccccc3c3ccccc32)cc1,"inconclusive: 28.2 µM [activator, single point]",–
COc1ccccc1-c1noc(-c2ccc(NCc3ccco3)c([N+](=O)[O-])c2)n1,–,inactive: 2.36%
CCOC(=O)C1=C(c2ccccc2)OC(N)=C(C#N)C1C1CCCCC1 (stereo not drawn),"inconclusive: 50.1 µM [activator, single point]",–
CCCCN1C(=O)c2[nH]nc(-c3ccccc3O)c2C1c1ccc(OCc2ccccc2)cc1 (stereo not drawn),"inconclusive: 14.1 µM [activator, full curve, poor fit]",–
O=C(NC12CC3CC(CC(C3)C1)C2)c1ccc(Br)o1,–,inactive: 0.602%
O=C(O)/C=C/C(=O)Nc1ccccc1-c1ccccc1NC(=O)/C=C/C(=O)O,–,inactive: -1.86%
CCn1c(C)[n+](CCOCC[n+]2c(C)n(CC)c3cc(Cl)c(Cl)cc32)c2cc(Cl)c(Cl)cc21,–,inactive: -3.93%
COc1ccc(C(=O)c2c(C)c3ccccc3n2CC(O)CNC(C)C)cc1 (stereo not drawn),"inconclusive: 28.2 µM [activator, single point]",–
CCOC(=O)C(=O)Nc1nc(-c2ccc3c(c2)CCN3C(=O)C2CC2)c(C)s1,"inconclusive: 44.7 µM [activator, single point]",–
C[C@@H]1CN([C@@H](C)CO)C(=O)c2cc(NS(=O)(=O)c3cccs3)ccc2O[C@H]1CN(C)Cc1ccc(C(F)(F)F)cc1,"inconclusive: 11.2 µM [activator, single point]",–
CCCCN(C)CCNC(=O)CCNC(=O)Cn1ccc2ccccc2c1=O,–,inactive: -3.14%
COc1ccccc1-c1cc(C(F)(F)F)nc(S(=O)(=O)CCCC(=O)NC(C)C)n1,"inconclusive: 2.24 µM [activator, full curve, poor fit]",–
COc1cccc(NC(=O)c2nnn(Cc3cccc(C(F)(F)F)c3)c2N)c1,–,inactive: 0.547%
O=C(c1cccs1)N1CCN(C(=O)c2cn(-c3ccccc3)nc2-c2ccccc2)CC1,–,inactive: 3.72%
